# Data reported in PubChem BioAssay AID686978 (National Center for Advancing Translational Sciences (NCATS), 2013).
# In all, about 420,000 compounds went through this assay and about 64,000 (15%) were called active. This list was built around the results that the source calls inconclusive (neither active nor inactive); the mix of calls is not that of the screen. The call rests on the fitted dose curve; in most records, active means well fitted inhibition curve with a large enough effect; inconclusive means small, poorly fitted or top-dose-only effect; inactive means flat fitted curve, though single readings scatter. No potency is given beside an inconclusive call; the fits are too rough.
# Test: qHTS for Inhibitors of human tyrosyl-DNA phosphodiesterase 1 (TDP1): qHTS in cells in absence of CPT; further: nearly all actives have a fitted effect of over 55% in size
# Conditions: DT40 Tdp1-/- hTDP1 cells, no CPT, ATP luminescence, 48 h; activity change, negative = growth inhibition: at 46.2 µM (top of the series)
# In short: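 DT40 Tdp1-/-;hTDP1 cells, no CPT (DMSO vehicle only), 400 cells/well; compounds pin-transferred; ≥48 hr, 37 °C; CellTiter-Glo 30 min RT dark, luminescence read.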
# On the % scale 0 is the no-effect control and ±100 the full control effect; potency means the concentration at half of the fitted maximal effect; tags describe the fitted curve by direction and shape.
Structure (SMILES),Potency,"activity change, negative = growth inhibition"
Cc1nc2cc(C(=O)NCCC3=CCCCC3)ccc2n1-c1ccc(Br)cc1,"inconclusive [inhibitor, single point]",–
Cc1ccc(/C=C2\SC(=S)N(CC3CCCO3)C2=O)o1 (stereo unspecified),"inconclusive [inhibitor, single point]",–
Cc1cc(C)c(NC(=O)CCN2C(=O)c3ccccc3Sc3ncccc32)c(C)c1,active: 20.6 µM,–
Cc1cccc(Nc2nc(-c3ccc(O)cc3O)cs2)n1,"inconclusive [inhibitor, single point]",–
Cc1cc(C)n2nc(-c3sccc3-n3cccc3)cc2n1,"inconclusive [inhibitor, single point]",–
N#Cc1cccc(C(c2nnnn2CCc2ccccc2)N2CCN(C3CCCCC3)CC2)c1 (stereo unspecified),active: 17.8 µM,–
CC(C)Oc1ccc(C(CCNCc2ccc(O)cc2)c2ccccc2)cc1 (stereo unspecified),active: 4.11 µM,–
Cn1c(O)c(N=NC(=O)CNC(=O)c2ccccc2)c2cc(Br)ccc21,"inconclusive [inhibitor, single point]",–
COc1ccc(-c2nc3ccc([N+](=O)[O-])cc3[nH]2)cc1,"inconclusive [inhibitor, single point]",–
O=C(NCC1CCCO1)c1cc(-c2ccncc2)nc2ccccc12 (stereo unspecified),"inconclusive [inhibitor, single point]",–
O=C1COc2ccc(-c3cc(-c4ccc(Cl)cc4)c4c(n3)-c3ccccc3OC4)cc2N1,active: 2.31 µM,–
CCCCCNC(=O)c1ccc2c(c1)ncn2-c1cccc(C)c1,"inconclusive [inhibitor, single point]",–
Cc1cccc(C(=O)Nc2nnc(S(=O)(=O)N(C)Cc3ccc(Cl)cc3)s2)c1,"inconclusive [inhibitor, single point]",–
O=C(NCc1ccc(F)cc1)Nc1ccccc1,inactive,–
CCCCNC(=S)N1CCN(c2nc3ccccc3s2)CC1,–,inconclusive: -34.5% [inhibitor]
CCOc1ccc(N/C(SC)=C(/C#N)C(N)=O)cc1,inactive,–
COc1ccc(-c2cc(-c3ccccc3O)[nH]n2)cc1OC,active: 18.4 µM,–
S=C(NCc1cccs1)Nc1cccc2ccccc12,inactive,–
CCC1NC(=O)c2cc(S(N)(=O)=O)c(Cl)cc2N1 (stereo unspecified),"inconclusive [inhibitor, full curve, poor fit]",–
CC(C)CNS(=O)(=O)c1cc(C(=O)O)c(Cl)cc1Cl,inactive,–
Cc1ccc(S(=O)(=O)Nc2cc(=O)[nH]c(SCC(=O)Nc3ccccc3Cl)n2)cc1,inactive,–
CCN(CC)CCCNC(=S)N1CCN(c2nc(-c3ccccc3)cs2)CC1,active: 18.4 µM,–
CCOC(=O)c1c(-c2ccccc2)csc1NC(=O)CSc1nnc(C)s1,"inconclusive [inhibitor, single point]",–

Structure (SMILES),Potency,"activity change, negative = growth inhibition"
CCOCCCn1c(C)nc2c(c1=O)c1nc3ccccc3nc1n2CCC1=CCCCC1,"inconclusive [inhibitor, single point]",–
O=C(CCN1C(=O)/C(=C\c2ccccc2F)SC1=S)N1CCCCC1,active: 2.91 µM,–
COc1cccc(C2CC(=O)Nc3cc(OC)c(OC)c(OC)c32)c1OC(C)C (stereo unspecified),"inconclusive [inhibitor, single point]",–
O=C(/C=C/c1ccco1)Nc1ccc2nc3n(c(=O)c2c1)CCCC3,inactive,–
CC(Sc1nc2ccccc2s1)C(=O)NC1CCCc2ccccc21 (stereo unspecified),active: 23.1 µM,–
COc1cc(CNC(=O)c2sc3ncccc3c2-n2cccc2)cc(OC)c1OC,active: 10.3 µM,–
COc1ccc(NC(=O)CN2C(=O)C(C)(C)c3ccccc32)cc1Cl,"inconclusive [inhibitor, single point]",–
CSc1ccc(CCNC(=O)C2=C(C)C(=O)OC23CCCCC3)cc1,inactive,–
CCn1c(C)cc(/C=C2\NC(=O)N(Cc3ccccc3)C2=O)c1C,"inconclusive [inhibitor, single point]",–
Cc1cccc(C(=O)N/C(=C\c2ccco2)C(=O)N2CCCCCC2)c1,"inconclusive [inhibitor, partial curve]",–
N#Cc1nc(-c2ccc(COc3ccccc3)o2)oc1NCc1cccnc1,"inconclusive [inhibitor, single point]",–
Cc1cc(C(=O)CSc2nnc(N)s2)c(C)n1CCc1ccc(Cl)cc1,"inconclusive [inhibitor, single point]",–
Cc1ccc(-c2cc(C(=O)OCC(=O)Nc3ncc(C(F)(F)F)cc3Cl)c3ccccc3n2)cc1,"inconclusive [inhibitor, single point]",–
CC(C)NC(=O)COc1ccc(OCc2ccccc2)cc1,active: 29.1 µM,–
Cn1cc(CNCCN2CCCCC2=O)c(-c2cccc(Cl)c2)n1,inactive,–
COc1ccccc1CN1CCC(CNS(=O)(=O)c2cc(-c3onc(C)c3C)ccc2OC)CC1,active: 20.6 µM,–
CN(C)CCCNC(=O)C[C@H]1C[C@H](C(=O)N2CCCCC2)[C@@]2(C)c3[nH]c4cc(-c5ccco5)ccc4c3CCN2C1=O,"inconclusive [inhibitor, single point]",–
O=c1oc2ccccc2c(Nc2ccccc2)c1[N+](=O)[O-],"inconclusive [inhibitor, single point]",–
Cc1cc(C(=O)NNC(=O)c2cccc(S(=O)(=O)N3CCOCC3)c2)c2ccccc2n1,inactive,–
O=C(/C=C/c1ccc(Cl)cc1Cl)N(Cc1ccccc1)C1CCS(=O)(=O)C1 (stereo unspecified),"inconclusive [inhibitor, single point]",–
O=S(=O)(c1ccc(SCc2ccc(Cl)cc2)nc1)N1CCCC1,active: 14.6 µM,–
O=C(COC(=O)c1cccc(OC(F)F)c1)Nc1cc(S(=O)(=O)N2CCCC2)ccc1Cl,"inconclusive [inhibitor, single point]",–
Nc1ccn([C@@H]2O[C@H](CNCc3ccc(C#CCCO)cc3)[C@@H](O)[C@H]2O)c(=O)n1,"inconclusive [inhibitor, single point]",–
